# According to PubChem BioAssay AID686978 (National Center for Advancing Translational Sciences (NCATS), 2013):
# Hit rate of the full screen: of about 420,000 compounds, about 64,000 (15%) were called active. Inconclusive results, whose numbers are uncertain, are shown with a selection of clear calls. The call rests on the fitted dose curve; in most records, active means well fitted inhibition curve with a large enough effect; inconclusive means small, poorly fitted or top-dose-only effect; inactive means flat fitted curve, though single readings scatter. Potencies of inconclusive entries are left out as doubtful fits.
# Assay: qHTS for Inhibitors of human tyrosyl-DNA phosphodiesterase 1 (TDP1): qHTS in cells in absence of CPT; further: nearly all actives have a fitted effect of over 55% in size
# Conditions: DT40 Tdp1-/- hTDP1 cells, no CPT, ATP luminescence, 48 h; series mostly up to 46.2 µM
# Summary of the method: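 Seeded 400 DT40-hTDP1 cells/well (vehicle DMSO, no 20 nM CPT); pinned compounds; ≥48 hr at 37 °C; CellTiter-Glo luminescence as viability measure.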
# Potency means the concentration at half of the fitted maximal effect; tags describe the fitted curve by direction and shape.
row,Compound,Potency
1,O=C(Nc1ccccn1)C1CCN(c2ncnc3c2nc2n3CCCCC2)CC1,"inconclusive [inhibitor, single point]"
2,CCOC(=O)N1CCN(CC(c2ccccc2)c2ccccc2)CC1,inactive
3,Cc1cccc(CNc2nc(-c3cccnc3)nc3ccccc23)c1,"inconclusive [inhibitor, single point]"
4,CCn1nc(C)c2c(-c3ccccc3)cc(=O)n(C(C)C(=O)NCCc3ccccc3)c21 (centres undefined),"inconclusive [inhibitor, single point]"
5,CCOc1ccccc1/C=C/C(=O)N1CCN(C(=O)c2ccco2)CC1,"inconclusive [inhibitor, single point]"
6,Cc1ccc(S(=O)(=O)N(C)C)cc1NC(=O)COC(=O)C1=COCCO1,inactive
7,c1ccc(COc2ccccc2CNC2CCCC2)cc1,"inconclusive [inhibitor, single point]"
8,CCOC(=O)Cn1nc(C)cc1NC(=O)c1cc(OC)c(OC)c(OC)c1,"inconclusive [inhibitor, single point]"
9,COc1cc(CSc2nnnn2-c2ccc(C)cc2)cc(OC)c1OC,active: 5.01 µM
10,CC(C)c1ccc(S(=O)(=O)c2cc3cc(Br)ccc3oc2=O)cc1,"inconclusive [inhibitor, single point]"
11,Cc1ccn(CC(=O)N2N=C(C(F)F)CC2(O)C(F)F)n1 (centres undefined),inactive
12,Cc1ccc(S(=O)(=O)N(C)/N=C/c2ccc(N(C)C)cc2)cc1,"inconclusive [inhibitor, single point]"
13,Cc1cccc(CCNC(=O)c2c[nH]c3ccc(S(=O)(=O)Nc4ccccc4F)cc3c2=O)c1,"inconclusive [inhibitor, single point]"
14,COc1ccnc(N2CCN(c3ccccc3)CC2)c1C#N,inactive
15,CCc1nnc(NC(=O)CN2C(=O)/C(=C/c3cc(OC)c(OC)c(OC)c3)SC2=S)s1,"inconclusive [inhibitor, single point]"
16,Fc1ccccc1Nc1ncnc2c1nc1n2CCCCC1,"inconclusive [inhibitor, partial curve]"
17,O=C(NCCc1ccc(Cl)cc1)c1ccc2c(c1)N(Cc1cccc(Cl)c1)C(=O)c1ccccc1S2(=O)=O,active: 7.31 µM
18,O=S1(=O)CCN(CCCc2ccccc2)CC1,inactive
19,c1ccc(C(Cc2nc(-c3ccncc3)no2)c2ccccc2)cc1,"inconclusive [inhibitor, partial curve, poor fit]"
20,COc1cc(N)c(Cl)cc1C(=O)OCC(=O)c1cccs1,inactive
21,Cc1ccccc1NC(=O)C(=O)NNC(=O)COc1ccc2ccccc2c1,"inconclusive [inhibitor, single point]"
22,Cc1ccc(Nc2nc(-c3cccnc3)nc3ccccc23)cc1,active: 8.2 µM
23,COC(=O)c1ccccc1OCc1cccc(C)n1,inactive
24,O=c1cc(-c2ccccc2Cl)oc2ccc([N+](=O)[O-])c(O)c12,"inconclusive [inhibitor, single point]"
25,CC(C)[C@H]1COCCS(=O)(=O)N1Cc1ccccc1F,"inconclusive [inhibitor, single point]"

row,Compound,Potency
1,CCOc1ccc(N(CC(=O)NCCSCc2ccc(Cl)cc2)S(C)(=O)=O)cc1,"inconclusive [inhibitor, single point]"
2,CC(C)CCNC(=O)c1c[nH]c2ccc(S(=O)(=O)N3CCOCC3)cc2c1=O,"inconclusive [inhibitor, single point]"
3,CCCCOC(=O)c1ccc(NC(=O)c2cc(Cl)ccc2OC)cc1,"inconclusive [inhibitor, partial curve]"
4,Cc1cc(C)cc(NC(=O)CN(Cc2ccccc2)S(C)(=O)=O)c1,active: 13 µM
5,COC(=O)c1ccc(NC(=O)CC2C(=O)N(c3cccc(C)c3)C(=O)N2C2CCCC2)cc1 (centres undefined),"inconclusive [inhibitor, single point]"
6,CS(=O)(=O)Nc1cccc(-c2nccc(Nc3ccc(F)cc3)n2)c1,"inconclusive [inhibitor, single point]"
7,COc1ccc(C(=O)NC(=S)N(C)Cc2ccccc2)cc1Br,"inconclusive [inhibitor, single point]"
8,CC1=C(N2CCN(c3ncccn3)CC2)CCC1=O,inactive
9,COC(=O)C=CC(=NNc1ccccc1)c1ccccc1,"inconclusive [inhibitor, single point]"
10,S=C(NC1CCCCC1)N1CCN(c2ccccn2)CC1,"inconclusive [inhibitor, partial curve]"
11,Cn1cccc1C(=O)OCC(=O)N1CC(=O)Nc2ccccc21,inactive
12,Cc1nc2ccccc2c2oc(C(=O)NCCCN3CCCC3=O)cc12,"inconclusive [inhibitor, single point]"
13,O=C1NC[C@H](Cc2ccc(O)cc2)N(C[C@@H]2CCCN2C[C@H](Cc2ccc(O)cc2)N2C[C@H](Cc3ccccc3)N(CC3CCCCC3)C(=O)C2=O)C1=O,inactive
14,Cc1ccc(S(=O)(=O)N2CCC(=O)N(CCOCc3cccc(F)c3)CC2)cc1,"inconclusive [inhibitor, single point]"
15,Cn1c(=O)c2c(ncn2CC(=O)OCC(=O)NCc2ccc(F)cc2)n(C)c1=O,"inconclusive [inhibitor, single point]"
16,COc1ccc(C(=O)Nc2nnc(-c3ccccc3)s2)cc1,"inconclusive [inhibitor, single point]"
17,COc1nc(-c2ccncc2)nc2ccccc12,inactive
18,COc1cccc(C2(CC(=O)N3CCN(c4ccccc4O)CC3)CC(=O)N(C3CCCC3)C2=O)c1 (centres undefined),"inconclusive [inhibitor, single point]"
19,COc1ccc(C(=O)N2CCCC2)cc1,inactive
20,CC(C)c1ccc(S(=O)(=O)N2CCN(C(=O)CN3C(=O)c4ccccc4C3=O)CC2)cc1,inactive
21,CCNC(=O)C[C@@H]1CC[C@@H]2NC[C@@H](O)COC[C@H]2O1,inactive
22,Cn1c(-c2ccc(F)cc2)cnc1NCc1ccc(C#N)cc1,active: 16.4 µM
23,CCOc1cc2[nH]c(=S)n(Cc3ccc(C(=O)NCCN(CC)CC)cc3)c(=O)c2cc1OCC,"inconclusive [inhibitor, single point]"
24,CCN(CC)CCN=c1c(C)nc(C#N)c(N)n1O,inactive
25,C=CCNc1nc(C(=O)OC(C)C(=O)c2ccc(C)cc2)cs1 (centres undefined),"inconclusive [inhibitor, single point]"

row,Compound,Potency
1,CCC1ON(c2ccccc2)C2c3nc4ccccc4n3CC12 (centres undefined),inactive
2,Cc1c(C(=O)N/N=C/c2ccncc2)nnn1-c1nonc1N,inactive
3,Clc1ccc2ncnc(NCc3ccc4c(c3)OCO4)c2c1,active: 2.51 µM
4,N=c1oc2ccc(Cl)cc2cc1C(=O)NC1CCCCCC1,active: 20.6 µM
5,CCOc1ccc(CNCc2ccccc2Cl)cc1,"inconclusive [inhibitor, partial curve]"
6,CC(C)C(=O)Nc1c2c(nn1-c1ccc(F)cc1)CSC2,inactive
7,COc1ccc(-c2noc(CN(C)S(=O)(=O)c3ccc(Cl)cc3)n2)cc1OC,"inconclusive [inhibitor, single point]"
8,CCCCc1cc(=O)oc2cc(C)cc(OC(C)C(=O)NCc3cccnc3)c12 (centres undefined),inactive
9,O=C(N/N=C\c1ccc(CNS(=O)(=O)c2ccccc2)o1)C(=O)Nc1ccc(F)cc1,"inconclusive [inhibitor, single point]"
10,CS(=O)(=O)c1ccc(C(=O)OCC(=O)N2CCCC2)cc1[N+](=O)[O-],active: 3.98 µM
11,O=C(NCCc1ccccc1)C1COc2ccccc2C1 (centres undefined),"inconclusive [inhibitor, single point]"
12,O=C(N/N=C/c1ccc(Br)s1)c1ccco1,"inconclusive [inhibitor, single point]"
13,O=C(CSC1=NS(=O)(=O)c2cc(F)ccc2N1)Nc1ccccc1,inactive
14,CCCN(CC1CC1)C(=S)Nc1ccc(Oc2ccccc2)cc1,active: 16.4 µM
15,COc1ccc(OCC(O)CNS(=O)(=O)c2ccc(C)cc2)cc1 (centres undefined),"inconclusive [inhibitor, full curve, poor fit]"
16,Cc1cccc(CN2C(=O)c3ccccc3Sc3ccc(C(=O)NCc4cccs4)cc32)c1,inactive
17,CC1(C(=O)NS(=O)(=O)Cc2ccccc2)CCN1C(=O)C1(c2ccc(Cl)cc2)CCC1 (centres undefined),inactive
18,O=C(NCc1ccccc1)C(c1ccccc1F)n1c(=O)c(-c2ccco2)nc2ccccc21 (centres undefined),active: 20.6 µM
19,CCOC(=O)N1CCc2c(sc3c2c(=O)n(-c2ccc(F)cc2)c(=O)n3CC(=O)c2ccccc2)C1,"inconclusive [inhibitor, partial curve]"
20,O=C(Nc1ccccc1)N1CCCC2CCCCC21 (centres undefined),"inconclusive [inhibitor, single point]"
21,Fc1ccc2[nH]c3c(NCCN4CCOCC4)ncnc3c2c1,"inconclusive [inhibitor, partial curve]"
22,CCCCCC(=O)N/N=C(\C)c1ccc(Cl)cc1,"inconclusive [inhibitor, partial curve, poor fit]"
23,COc1ccc(/C(C)=N/NC(=O)CNC(=O)/C=C\c2ccccc2)c(OC)c1,"inconclusive [inhibitor, single point]"
24,O=C(CCc1nnc(CCCCc2ccccc2)o1)NCCCc1cccnc1,"inconclusive [inhibitor, single point]"
